The structures appear in SMILES notation. The campaign covered roughly 150,000 compounds. About 540 (0.36%) showed an effect of 50% or more. Some of the results follow.

In this assay the test system is Plasmodium falciparum. Description: Primary screen in NF54 nanoGlo assay, in single point, at 2uM, 72h; a lower Z score goes with more inhibition. Type of assay: functional, Erythrocyte. The settings on record: timepoint 72 hour.
Regarding `CCc1nc(COC(=O)[C@@H]2CCCN2C(C)=O)cs1`, the “% Inhibition” value was -2% and the Z score worked out at 0.26.
In the same order, the values of `O=C1NC2(CCN(S(=O)(=O)c3ccc(F)cc3F)CC2)Nc2ccccc21` are -1% and 0.12.
In the same order, the values of `COc1ccc2cc3n(c2c1)C[C@](C(=O)NC1CCCCCC1)(c1ccccc1)N(Cc1cccc(Br)c1)C3=O` are 37% and -0.96.
With `COc1ccc(-c2ccc(=O)n(CC(=O)N3CCN(Cc4ccccc4)CC3)n2)cc1OC`, the “% Inhibition” value is reported as -10% and the Z score is 1.76.
In the same order, the values of `Cc1nc(C(C)C)sc1C(=O)N(C)Cc1cc(C2CC2)[nH]n1` are -10% and 1.28.
In the same order, the values of `Cc1cnc([C@@H](C)CNC(=O)c2nc(-c3cnccn3)no2)s1` are -6% and 0.88.
In the same order, the values of `O[C@H]1C[C@@H](C(Nc2ncnc3[nH]ccc23)c2ccc3c(c2)CCO3)C1` (some centres not stated) are -5% and 0.76.
Turning to `CCCc1cc(C(=O)NC[C@H]2CCCN(S(C)(=O)=O)C2)ccn1`, the “% Inhibition” value is listed as -15% and the Z score is 1.65.
In the same order, the values of `CO[C@H]1CCCN(C(=O)c2cccc(-c3ccc(-c4ncc(C)cn4)cc3)c2)C1` are -9% and 1.46.
For `Cc1ccc(CN2CCC[C@H]2c2ncc(C)n2Cc2cccnc2)o1` the same measures were 10% and -1.29.
Turning to `Cc1ccc(CCC(=O)N2CC[C@H](N3CCN(C)CC3)[C@H](CCC(=O)O)C2)cc1`, the “% Inhibition” value is recorded as -6% and the Z score was 0.76.
For `CCOc1ccc([C@@H](Nc2nc(C)cc(C)n2)c2cc(C)sc2NC(=O)c2ccccc2)cc1` the same measures were 44% and -5.92.
For `O=C1C[C@@H](c2ccccc2)N(Cc2ccncc2)CCCN(C(=O)CC2CCCC2)CCN1` the same measures were 0% and -0.06.
In the same order, the values of `Cc1nnnn1CCC(=O)N1CCC[C@H](c2nc3ccccc3s2)C1` are -15% and 2.29.
As to `CCc1cc(NC(=O)N2CC(C)OC(c3ccsc3)C2)n(C)n1` (configuration not stated), the “% Inhibition” value is recorded as -2% and the Z score is recorded as 0.36.
As to `COc1cc(C(=O)N[C@H]2CCCO[C@@H]2c2ccc(Cl)cc2)ncn1`, the “% Inhibition” value came to 3% and the Z score is -0.41.
In the same order, the values of `C#CCNC(=O)CCOc1ccccc1Cl` are 8% and -1.37.
For `Cc1cc(C(=O)N2CCc3c(ncn3C)C23CCOCC3)co1` the same measures were -6% and 1.05.
With `Cc1nnnn1CCOc1ccccc1Br`, the “% Inhibition” value is recorded as -9% and the Z score is 1.2.
In the same order, the values of `CC(NC(CC1CCOC1)c1ccccc1)c1ncc(C(C)(C)C)o1` (configuration not stated) are -8% and 1.17.
As for `CC(C)c1ocnc1C(=O)Nc1cccc(S(=O)(=O)NC2CC2)c1`, the “% Inhibition” value was 3% and the Z score is given as -0.42.
As for `COc1cc(-c2ccc(C(=O)N3CCC[C@H](O)C3)cc2)nc(OC)n1`, the “% Inhibition” value is 2% and the Z score is given as -0.43.
For `COC(=O)[C@H](CS(=O)(=O)N(C)OC)NC(=O)OCc1ccccc1` the same measures were -6% and 0.75.
As to `CC(C)c1nnc(CNC(=O)[C@H]2CCO[C@@H]2c2ccnn2C(C)C)[nH]1`, the “% Inhibition” value is on record as -6% and the Z score is 0.81.
In the same order, the values of `O=C(CN1C(=O)COc2ccc(Cl)cc21)OC1CCCCC1` are -9% and 1.15.
In the same order, the values of `O=C(Nc1cccc(Cl)c1)c1ncccn1` are -5% and 0.61.
`O=C(c1ccc(C(F)F)c(F)c1)N1CC2(C1)CS(=O)(=O)C2`: the “% Inhibition” value is recorded as -7% and the Z score stood at 0.96.
In the same order, the values of `CCOC(=O)N1CCN(C(=O)[C@H]2CC[C@H](Cn3c(=O)[nH]c4ccccc4c3=O)CC2)CC1` are 4% and -0.47.
`COc1cccc(CNCc2ccccc2C)c1OC[C@@H](O)CN1CCOCC1`: the “% Inhibition” value was determined as 0% and the Z score was 0.05.
For `COc1ccc(CNC(=O)c2ccc(-n3nc(N4CCCC4)ccc3=O)cc2)cc1` the same measures were -16% and 1.94.
In the same order, the values of `O[C@@H](CNCCCn1ccnc1)COc1ccc(Cl)cc1Cl` are 26% and -2.66.
With `CCN(CC)C(=O)c1c(CC2CCCC2)n(Cc2cccnc2)c(C)cc1=O`, the “% Inhibition” value is 12% and the Z score is -2.15.
In the same order, the values of `O=S(=O)(Nc1nc(-c2cc(F)ccc2F)cs1)c1cccs1` are -10% and 1.26.
For `O[C@@H](CCNCc1ccccc1)c1ccccc1` the same measures were 33% and -3.84.
For `NC(=O)C(c1ccccc1)N1C[C@@H](N)[C@H](c2ccccc2)C1` (some centres not stated) the same measures were -3% and 0.48.
`CC[C@@H](NC(=O)N1CC[C@@H](O)C1)c1ccccc1`: the “% Inhibition” value is -14% and the Z score came out at 2.71.
Turning to `CCC(CC)C(=O)N1C[C@@H]2CN(C3CCCC3)CC[C@]2(CO)C1`, the “% Inhibition” value is -9% and the Z score is listed as 1.3.
In the same order, the values of `COc1ccc(-c2noc([C@@H]3CCCN3)n2)cc1OC` are -10% and 1.23.
For `O=C(CC1CCC2CC12)NS(=O)(=O)c1sccc1Cl` (configuration not stated) the same measures were 4% and -0.8.
In the same order, the values of `COC(=O)C(C)OC1C(NC(C)=O)C(OCc2ccccc2)OC2COC(C)(C)OC21` (configuration not stated) are -5% and 0.55.
`CC[C@@H](CO)NC(=O)Nc1nccs1`: the “% Inhibition” value is given as -10% and the Z score came to 1.37.
In the same order, the values of `CNS(=O)(=O)c1ccc(N2CCN(C)C(=O)[C@@H]2C)nc1` are -10% and 1.81.
Consider `O=C1OC(c2ccc(N3C(=O)c4ccccc4C3=O)cc2)(c2ccc(N3C(=O)c4ccccc4C3=O)cc2)c2ccccc21`, for which the “% Inhibition” value is -7% and the Z score is 1.26.
For `COC[C@H]1CCN(C(=O)N2CCOc3cc(F)c(F)cc32)C1`, the “% Inhibition” value was -8% and the Z score is reported as 1.23.
For `Cc1cccc(OCC(O)Cn2c(N3CCCC(C)C3)nc3c2c(=O)[nH]c(=O)n3C)c1` (configuration not stated), the “% Inhibition” value came out at 2% and the Z score is listed as -0.21.
For `C[C@]1(CO)[C@H]2Cc3sc(NC(=O)C4CCC4)nc3[C@@H](CC(=O)NCCN3CCOCC3)[C@]2(C)CC[C@H]1O` the same measures were 32% and -3.56.
`Cc1nc(N2CCC(O)C3CCCCC32)ccc1C#N` (configuration not stated): the “% Inhibition” value amounted to 4% and the Z score is recorded as -0.74.
In the same order, the values of `CCOC(=O)COc1cccnc1C#N` are -9% and 1.36.
In the same order, the values of `CS(=O)(=O)N1CCO[C@@H](CNC(=O)Nc2cccc(-c3ccco3)c2)C1` are -8% and 0.79.
For `CS(=O)(=O)N1CCN(C(=O)C[C@@H]2NC(=O)N(CCc3cccc(F)c3)C2=O)CC1` the same measures were -13% and 1.66.
With `O=C(C1CC1c1ccccc1)N1CCc2ccccc21` (configuration not stated), the “% Inhibition” value turned out to be 33% and the Z score is reported as -3.78.
On to `Cc1ccc(CNC(=O)c2ccc3nn(CC(=O)Nc4ccc5c(c4)OCO5)c(=O)n3c2)cc1`, for which the “% Inhibition” value is on record as -16% and the Z score is reported as 1.44.
`CC(C)CN1C[C@@H](c2ncc(-c3cccnc3)[nH]2)CC1=O`: the “% Inhibition” value is recorded as -5% and the Z score is reported as 0.66.
In the same order, the values of `Cc1cccc(C(=O)N2CC[C@H](N(CCN3CCOCC3)S(C)(=O)=O)C2)n1` are 2% and -0.27.
For the molecule `Cc1cccc(OCc2nc(C(=O)NC3CC3)cs2)c1`, the “% Inhibition” value is on record as -1% and the Z score is 0.27.
In the same order, the values of `CCn1nc(C)c(Cn2ccnc2-c2ccc(-c3cc[nH]n3)o2)c1C` are -11% and 2.22.
For `O[C@H](COCc1ccccc1)CN(Cc1ccccc1)Cc1ccc(F)cc1F`, the “% Inhibition” value is reported as 1% and the Z score is -0.18.
In the case of `COc1cc2c(cc1OC)CN(C(=O)c1c(C)nn([C@H]3CCS(=O)(=O)C3)c1C)CC2`, the “% Inhibition” value came to 1% and the Z score is on record as -0.06.
In the same order, the values of `Cc1cc(C(=O)Cn2cnc(C#N)n2)c(C)n1-c1ccc2c(c1)CCC2` are -6% and 0.93.
In the same order, the values of `CS(=O)(=O)[C@H]1CCN(C(=O)c2csc(-c3cccs3)n2)C1` are -20% and 3.73.
Consider `O=C(c1ccc2c(c1)CCO2)N1CCc2[nH]ncc2C1`, for which the “% Inhibition” value is -7% and the Z score is 0.96.
In the same order, the values of `Cc1c(C(=O)O)cnn1-c1ccncc1` are -3% and 0.34.
Take `Cc1nc(NC(=O)c2ccsc2)n(C)n1`: the “% Inhibition” value is recorded as -5% and the Z score came out at 0.52.
In the same order, the values of `CCN(C(=O)c1ccc(C)nc1)c1cccnc1C` are -11% and 1.43.
For `c1ccc2c(c1)cnn2-c1ccc(Oc2ncnc3c2CCC3)cc1` the same measures were -15% and 1.74.
For `CCCN(C)c1nc(-c2ccccc2)nc2c1CN(S(=O)(=O)c1cc(Cl)ccc1Cl)CC2` the same measures were 3% and -0.37.
As for `CC(C)(C)c1ccc2c(c1)N(Cc1cccc(C(=O)NCc3ccc(F)cc3)c1)C(=O)CO2`, the “% Inhibition” value was found to be 2% and the Z score was -0.27.
As to `COCCn1cc(CNc2cc(C(C)C)ncn2)c(=O)[nH]c1=O`, the “% Inhibition” value is given as -4% and the Z score is listed as 0.59.
In the same order, the values of `COCCn1cnnc1[C@H](C)NCc1n[nH]c(C)c1Cl` are -5% and 0.85.
In the case of `CCOc1ccccc1CN1CCC2(CCC(=O)N(Cc3ccncc3)C2)CC1`, the “% Inhibition” value is -13% and the Z score came out at 2.04.
For `Cc1cc(C(=O)NC(C)(C)c2c[nH]nn2)ns1` the same measures were -19% and 3.7.
In the same order, the values of `O=C(Nc1cccc(-c2cscn2)c1)C1CCN(C(=O)[C@H]2CCCO2)CC1` are -8% and 0.75.
In the same order, the values of `Cn1c(CO)nnc1C1CCN(C(=O)c2n[nH]c(=O)c3ccccc23)CC1` are -6% and 0.74.
As for `Cc1ccc(N2C[C@]34C=C[C@H](O3)C(C(=O)N(C)Cc3ccncn3)C4C2=O)cc1C` (some centres not stated), the “% Inhibition” value is on record as -8% and the Z score is listed as 1.01.
In the same order, the values of `C[C@@H](CNC(=O)CCCOCCc1ccccc1)N1CCN(C)CC1` are -5% and 0.94.
For `Cc1nn(C)cc1CN(Cc1ccncc1)C1CCCCC1` the same measures were 8% and -1.12.
In the same order, the values of `CC(Cc1cnc[nH]1)C(=O)N1CCC[C@H]1C(=O)N(C)C` (some centres not stated) are -7% and 0.85.
As to `COc1ccccc1CNC(=O)CC1CCN(C(=O)c2ccc3oc(-c4ccccc4)nc3c2)CC1`, the “% Inhibition” value is on record as -13% and the Z score came out at 1.5.
For `COc1ccc(C(=O)N(Cc2ccc(-c3cccc(C(F)(F)F)c3)o2)[C@H]2CCS(=O)(=O)C2)cc1` the same measures were -10% and 1.34.
For `COc1cc(C(=O)N2CCC[C@H](c3nc4ccccc4s3)C2)ccc1OCC(=O)N1CCOCC1` the same measures were -1% and 0.23.
In the same order, the values of `CC(C)(C)n1ncc2c(=O)[nH]c(N[C@@H](CF)c3ccc(F)cc3)nc21` are -9% and 1.26.
